Reference: the supplement of paper PMC11417369
± gives the standard deviation of the averaged measurements. The list shows a part of the results.

System: PfAP2-LT AP2 domain (GST-tagged)
Assay: gcPBM binding intensity (ln(normalized median fluorescence intensity)); higher = stronger DNA binding
Procedure, shortened: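 The highest Masliner-normalised natural-log median intensity across replicate spots of either probe orientation is reported as binding intensity. GST-tagged P. falciparum DNA-binding domains expressed in E. coli were applied for 1 h to an Agilent 4 × 180k array of primer-extended double-stranded 36-bp intergenic genomic probes plus negative controls, and bound protein was detected with Alexa488 anti-GST antibody and scanned at 488 nm.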

| Sequence | gcPBM binding intensity (ln) |
| --- | --- |
| AACATAGAAACGTTATGTACATATTGAAGGATATTA [XGTACX_site6015] | 9.05 ± 0.43 |
| AAATATTTATACTATACACACCCAATTTAAAAAAAA [CACACA_site6669] | 8.82 ± 0.3 |
| ATTTTTTTATGTACACAAAAAAAAAAAAAAATTTAA [CACACA_negctrl_site1028] | 8.41 ± 0.36 |
| AAAAGAATATAAAGATACATTGTGATATGGGACAAA [CACACA_negctrl_site405] | 8.87 ± 0.49 |
| GAAATAATTTCATATACACACATATACATACATACA [CACACA_site1358] | 9.16 ± 0.35 |
| TATATATATATTGAAGTGCAAAATACTGTACGTAAT | 8.94 ± 0.43 |
| TTAATTCTACTTATTACACACATATTAATCAAAAAT [CACACA_site1478] | 8.71 ± 0.29 |
| TATATATATATAAACAGTACACAAATTGTAAATAAA [XGTACX_site8268] | 9.04 ± 0.49 |
| TTTTCATTTTTCTTTACACACATATATTTATTTATA [CACACA_site7119] | 8.97 ± 0.39 |
| GTTAATATTTACTACACACACTTAAAATATGTATAT [CACACA_site4194] | 9.15 ± 0.31 |
| ATATTATAATTAAAACGTACGTATTTATGAATTCAT [XGTACX_site1047] | 8.73 ± 0.42 |
| TACATAAATTAAAACACACACACACTAAAAAAAAAA [CACACA_site7130] | 9.79 ± 0.4 |
| TATTAATTAAACCATACACACATAATTTTTTTATAA [CACACA_site843] | 8.66 ± 0.4 |
| ATGGAAGGAAACAATAAAAAAAAAAAAAAATATATA [XGTACX_negctrl_site594] | 8.51 ± 0.58 |
| TTTTTTATTTGACAAGCACACACTTAAATATATATA [CACACA_site3358] | 8.85 ± 0.38 |
| CATTTAAAGGACAAGCTGCACTTACAAAATAAAAAA | 8.57 ± 0.55 |
| AAATGAGTATTCATATGTACACAAATAAAAAATTAA [XGTACX_site2968] | 8.8 ± 0.45 |
| AGGTTAAAAATAAATACACACATTTTATGTCTGTAT [CACACA_site996] | 9.06 ± 0.4 |
| TTTTTTTTTTAATAAAGTACATATAAATTACCTAAT [XGTACX_site4434] | 8.15 ± 0.45 |
| ACTATACAGTTATACACACACATATATATATAATAT [CACACA_site310] | 9.46 ± 0.32 |
| ATCTTTGGAAATTTATGTACTTATATTTATATTGTA [XGTACX_site6606] | 8.77 ± 0.49 |
| ATTTCTAGTTTAAGATGTACTTTAATAAAAATTATT [XGTACX_site4820] | 8.38 ± 0.43 |
| AAATATCAACAAAAATGTACAAATGTAAAAGAATAT [XGTACX_site4676] | 9.22 ± 0.4 |

| Sequence | gcPBM binding intensity (ln) |
| --- | --- |
| TTAAAAAAAAGACACACACACATACACATATTTATA [CACACA_site7535] | 9.94 ± 0.35 |
| TATATATATATATATACACACATATATATAAATATA [CACACA_site2035] | 9.41 |
| CACAAAAGTAAGCACGCACACACAACCTGAAATAAA [CACACA_site166] | 9.59 ± 0.44 |
| ATATTATATAAATATACACACATTGTTTTATAGCAT [CACACA_site2386] | 9.04 ± 0.35 |
| AAAAAAAAATACATATGTACATATACATATATATAT [XGTACX_site2975] | 8.9 ± 0.41 |
| ATATATTTAATTTATGGTACACATAATTTTTTTAGA [XGTACX_site848] | 8.55 ± 0.44 |
| GAACATACTCAAATAGCACACACATAAATAAAAATG [CACACA_site9283] | 9.52 ± 0.34 |
| AAAATCCACATTTTAGTACACACTTAAAAAATTATT [CACACA_site2955] | 8.71 ± 0.46 |
| TTATATATATATATATGTACGAAAAAGAAAAAAAAG [XGTACX_site6761] | 8.69 ± 0.45 |
| TATATATATATAATATGTACATATAATCAACATTTT [XGTACX_site3915] | 8.8 ± 0.45 |
| TTAGTCATATATATATGTACACACATATATATATTT [XGTACX_site2948] | 9.01 ± 0.33 |
| ATTTTTATATAATGAACACACATATTATATCATTTA [CACACA_site1572] | 8.79 ± 0.42 |
| AAAAGAAAATAAGAAACACACAAAAATATGTAAAAA [CACACA_site7694] | 9.17 ± 0.65 |
| CCATAGATATTTTATACACACATATAACATATTAAT [CACACA_site6312] | 8.96 ± 0.35 |
| ATATTGACAAATATTACACACATATATAAATATGTA [CACACA_site7835] | 8.89 ± 0.41 |
| ATTTATTTTAATATATGTACATATATTTTTTTATTA [XGTACX_site3389] | 8.8 ± 0.47 |
| ATATAATATTACACAAGTACAAAAATTAATACTAAA [XGTACX_site482] | 8.81 ± 0.47 |
| AAACTGTCGCTCATAAAGAAGAATGAAATACATTAA [TGCATGCA_negctrl_site60] | 8.6 ± 0.54 |
| ACCCATGATTGTTACAGTACTCTACTTTCTAATATA [XGTACX_site98] | 8.96 ± 0.46 |
| ATATATGCATATTATACACACATATGTATATACATT [CACACA_site965] | 9.24 ± 0.33 |
| AAAAAAAAAAAAAATGCACACAATGGCTAGCTGTAC [CACACA_site2273] | 9.16 ± 0.27 |
| TTTTCTGTATATTGTGTGCACACAATTAACAAAAAA [GTGCAC_site9817] | 9.09 ± 0.4 |
| TGGAGGTCAGTTCACAGTACCCAGGAAATCTACGGA [XGTACX_site1995] | 8.64 ± 0.53 |

| Sequence | gcPBM binding intensity (ln) |
| --- | --- |
| ATAAAATATAAAAAAAGTACAAAAAAAAAAAAAAAA [XGTACX_site6657] | 8.68 ± 0.42 |
| ATTTGAAATGCATGAACACACACAGCTATAAATGCA [CACACA_site8229] | 9.14 ± 0.29 |
| TAGTAATATATATTTTGTACATAAAATAATATATAA [XGTACX_site7971] | 8.57 ± 0.47 |
| CGTTATTATCCACATACACACAGGAATAAAAAATTA [CACACA_site2883] | 9.04 ± 0.47 |
| TATATATGTTAAAACGTGCACATATATATATATATA [GTGCAC_site9589] | 9.725 ± 0.092 |
| TTCTTTTTTTTTCTGGGTACATATATTCCAATCACT [XGTACX_site4770] | 8.93 ± 0.4 |
| TTATAAAAGACAAAAGTGCATATATACATATGTATA | 8.76 ± 0.52 |
| AATATAATTATATGTGGTACAGAAATAATATAAAAT [XGTACX_site2366] | 9.14 ± 0.49 |
| AAATAAATAAATTAACGTACATAATAACATTAATAT [XGTACX_site8567] | 8.86 ± 0.47 |
| ATATATATATATGTATGTACACATATTTTTTAACTT [XGTACX_site431] | 9.32 ± 0.32 |
| TGTAAAACCTCCTACACACACCAATTAACTATTCTA [CACACA_site7074] | 9.36 ± 0.15 |
| TATATATATATTATTAGTACTTATTTTTTTTCATAT [XGTACX_site1279] | 8.79 ± 0.48 |
| TTATATTATAGACACACACACAAAAAAAAAAAAAAA [CACACA_site3816] | 9.3 ± 0.47 |
| TATAACTTTTATAGGTGTACCCAATATTATATATAG [XGTACX_site7673] | 8.56 ± 0.38 |
| CCATCTTTTTTACGATGTACAAGTATAAGGTATACG [XGTACX_site2697] | 8.58 ± 0.41 |
| TATATATAATAAGAAGGTACACGTAAGTAATAATTT [XGTACX_site934] | 9.01 ± 0.42 |
| TTTATATGTTTTGTATTTTTAATAAATATTTTATTA [TGCATGCA_negctrl_site20] | 8.59 ± 0.47 |
| TTGAATTAAAAACATACATGCATATATATATATATA [TGCATGCA_site319] | 9.72 ± 0.071 |
| AATAAATTACTATGTACACACATAAGAGTATAAATA [CACACA_site6940] | 9 ± 0.49 |
| TTATAAAATGGGCAAACACACACAAAAAAAAGATAT [CACACA_site8476] | 9.47 ± 0.38 |
| AAAAAGTTACATGGTGGTACTCAAATAAAATATTCT [XGTACX_site5993] | 8.74 ± 0.45 |
| ATTATCCATGCATTTACACACACACTAAAAAAAATT [CACACA_site7848] | 9.49 ± 0.14 |
| ATGTATATATATTTGTGTACATATTTAGGAAATAAA [XGTACX_site2904] | 8.78 ± 0.47 |

| Sequence | gcPBM binding intensity (ln) |
| --- | --- |
| AATTAAATTTATATGAATGTCAATTATATTGTTATA [XGTACX_negctrl_site261] | 8.47 ± 0.47 |
| TTTTTTTTAGTATGAACACACATATATATTATAAAA [CACACA_site2935] | 8.41 ± 0.37 |
| TATTATGTTATATATTGTACATGTTTATTGAAACAA [XGTACX_site5605] | 8.55 ± 0.39 |
| TTTATATGTGAAAAAAGTACAAGGAAAAAATTAAAC [XGTACX_site7269] | 8.74 ± 0.57 |
| TATTAACAAAATATAGCACACATAAATATATATTTA [CACACA_site8005] | 8.75 ± 0.41 |
| TTTTTTTTTTTTTGATGTACATAAATTAAGAATTAT [XGTACX_site7789] | 8.41 ± 0.42 |
| AATATATCTTTTTACGGCAACCATATTTTTCCCATT [CACACA_negctrl_site963] | 8.84 ± 0.47 |
| TATATATTTGTAACGGGTACGTAGGTGTATATTCCA [XGTACX_site6028] | 8.82 ± 0.46 |
| AGCCACGTGGTATATACACACATAATCAAATAAAAT [CACACA_site9364] | 9.43 ± 0.45 |
| TTTTTTTTTTTTTTGACACACATAATAAAATACAAA [CACACA_site3080] | 8.4 ± 0.38 |
| AATAAGCATATACAAACATGCATACATATAAATAAA [TGCATGCA_site338] | 8.94 ± 0.42 |
| GAAACGATTTAATACACACACGTATTATAGATATAT [CACACA_site6666] | 9.25 ± 0.34 |
| ATAAAACAACACACTTGTACTAATTTTTTTTTTTTT [XGTACX_site8377] | 8.79 ± 0.39 |
| TAATTTATAAGGTATAACAACAATTGCATCTATCAC [XGTACX_negctrl_site314] | 8.68 ± 0.44 |
| TGAATAAATAGACACACACACATATATAAATATGTA [CACACA_site6159] | 9.66 ± 0.25 |
| AAATATTTTAACGAGAGTACATAATAACAATTTATG [XGTACX_site3865] | 8.61 ± 0.43 |
| GAAAGAATAAAATTTACACACATATATAAATACATA [CACACA_site5273] | 9.07 ± 0.44 |
| TTTTTTTTTTTTTATTGTACTAAATTATAGAGGGGA [XGTACX_site2609] | 8.39 ± 0.38 |
| AAAAAAAAAAAATACACACACACATATATATATATA [CACACA_site731] | 9.84 ± 0.29 |
| AAAGAAAGGAATACGACACACAAAAAAAAAATATAT [CACACA_site1934] | 9.31 ± 0.59 |
